Test results reported in article PMC3734299, “Farnesyl Phosphatase, a Corpora allata Enzyme Involved in Juvenile Hormone Biosynthesis in Aedes aegypti” (PLoS ONE, 2013).

Molecular target: T1, AaFPPase-3 (Aedes aegypti, UniProt A0A1S4FMV7)
T1 construct: gene 110678816
T1 sequence (A0A1S4FMV7 1-317): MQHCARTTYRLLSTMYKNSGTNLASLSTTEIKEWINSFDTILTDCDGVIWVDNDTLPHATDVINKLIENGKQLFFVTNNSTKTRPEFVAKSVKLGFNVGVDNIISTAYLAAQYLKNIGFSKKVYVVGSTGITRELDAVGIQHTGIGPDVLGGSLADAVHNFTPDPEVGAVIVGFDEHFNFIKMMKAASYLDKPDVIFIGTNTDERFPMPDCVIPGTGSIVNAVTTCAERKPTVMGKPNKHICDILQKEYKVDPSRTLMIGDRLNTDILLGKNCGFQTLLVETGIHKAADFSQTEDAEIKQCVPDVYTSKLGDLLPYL
Test: p-NPP phosphatase assay
Conditions: Mg2+ cofactor; optimum pH 6.0

O=[N+]([O-])c1ccc(OP(=O)(O)O)cc1 [p-NPP]
p-NPP phosphatase assay: All AaFPPases hydrolyzed p-NPP, but only AaFPPase-1 and -2 converted FPP into farnesol
